Test results taken from the supplement of paper PMC12217912.
Some of the results follow. The full chains were built here from the parent and the listed change. Inactive controls read about 0.05.

B1: TEV protease; numbered along this chain (parent)
chain: MGESLFKGPRDYNPISSSICHLTNESDGHTTSLYGIGFGPFIITNKHLFRRNNGTLVVQSLHGVFKVKDTTTLQQHLVDGRDMIIIRMPKDFPPFPQKLKFREPQREERICLVTTNFQTKSMSSMVSDTSCTFPSGDGIFWKHWIQTKDGQCGSPLVSTRDGFIVGIHSASNFTNTNNYFTSVPKNFMELLTNQEAQQWVSGWRLNADSVLWGGHKVFMVKPEEPFQPVKEATQL

Variants of: B1
Assay: raw area under fraction-flipped curve 0-4 h after induction (AUC4h, not background-subtracted), DNA-recorder readout of cleavage of the substrate (dimensionless); higher = more cleavage of the substrate by the protease variant
Conditions: temperature: 34 °C; time window: 0-4 h after rhamnose induction
Method: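 In vivo DNA recorder in E. coli TOP10(DE3) ΔrhaA at 34 °C. Each TEVp single-site mutant (parent TEVp 0) is paired with a single-site variant of the 7-mer TEVs (canonical ENLYFQ|S). The substrate sits between flexible linkers in a Bxb1-sfGFP-TEVs-SsrA fusion, so cleavage stabilises Bxb1 and speeds flipping of a recombination array, read by NGS. The value is the raw area under the fraction-flipped curve over 0-4 h after rhamnose induction (AUC4h), with ≥20 reads per time point. It is not background-subtracted; inactive controls average about 0.047.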
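Also: Bxb1 expression induced with 0.2% (w/v) L-rhamnose at OD600 near 0.5, cultures sampled hourly, flipped fraction per protease–substrate barcode pair counted by paired-end Illumina sequencing.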

For MGESLFKGPRDYNPISSSICHLTNESDGHTTSLYGIGFGPFIITNKHLFRRNNGTLVVQSLHGVFKVKDTTTLQQHLVDGRDMIIIRMPKDFPPFPQKLKFREPQREERICLVTTNFQTKSMGSMVSDTSCTFPSGDGIFWKHWIQTKDGQCGSPLVSTRDGFIVGIHSASNFTNTNNYFTSVPKNFMELLTNQEAQQWVSGWRLNADSVLWGGHKVFMVKPEEPFQPVKEATQL [S123G], the “area with substrate ENLYFQA” value was 0.0896, the “area with substrate ENLYFQD” value was 0.0802 and the “area with substrate ENLYFQE” value was 0.0723. The “area with substrate ENLYFQF” value was 0.0719, the “area with substrate ENLYFQG” value was 0.13 and the “area with substrate ENLYFQH” value was 0.0727. For the same variant, the “area with substrate ENLYFQI” value was 0.0538, the “area with substrate ENLYFQK” value was 0.0667 and the “area with substrate ENLYFQL” value was 0.0633. For the same variant, the “area with substrate ENLYFQM” value was 0.111, the “area with substrate ENLYFQN” value was 0.0807 and the “area with substrate ENLYFQP” value was 0.06. The “area with substrate ENLYFQQ” value was 0.0668, the “area with substrate ENLYFQR” value was 0.0574 and the “area with substrate ENLYFQS” value was 0.103. The “area with substrate ENLYFQV” value was 0.0544, the “area with substrate ENLYFQW” value was 0.0759 and the “area with substrate ENLYFQY” value was 0.0626.

With MGESLFKGPRDYNPISSSICHLTNESDGHTTSLYGIGFGPFIITNKHLFRRNNGTLVVQSLHGVFKVKDTTTLQQHLVDGRDMIIIRMPKDFPPFPQKLKFREPQREERICLVTTNFQTKSMESMVSDTSCTFPSGDGIFWKHWIQTKDGQCGSPLVSTRDGFIVGIHSASNFTNTNNYFTSVPKNFMELLTNQEAQQWVSGWRLNADSVLWGGHKVFMVKPEEPFQPVKEATQL [S123E] the “area with substrate ENLYFQA” value was 0.115, the “area with substrate ENLYFQC” value was 0.111 and the “area with substrate ENLYFQD” value was 0.0888. The “area with substrate ENLYFQF” value was 0.0642, the “area with substrate ENLYFQG” value was 0.081 and the “area with substrate ENLYFQH” value was 0.0616. The “area with substrate ENLYFQI” value was 0.0642, the “area with substrate ENLYFQL” value was 0.0823 and the “area with substrate ENLYFQM” value was 0.0871. For the same variant, the “area with substrate ENLYFQN” value was 0.0968, the “area with substrate ENLYFQR” value was 0.0598 and the “area with substrate ENLYFQS” value was 0.0989. The “area with substrate ENLYFQT” value was 0.0672, the “area with substrate ENLYFQW” value was 0.0626 and the “area with substrate ENLYFQY” value was 0.0824.

With MGESLFKGPRDYNPISSSICHLTNESDGHTTSLYGIGFGPFIITNKHLFRRNNGTLVVQSLHGVFKVKDTTTLQQHLVDGRDMIIIRMPKDFPPFPQKLKFREPQREEEICLVTTNFQTKSMSSMVSDTSCTFPSGDGIFWKHWIQTKDGQCGSPLVSTRDGFIVGIHSASNFTNTNNYFTSVPKNFMELLTNQEAQQWVSGWRLNADSVLWGGHKVFMVKPEEPFQPVKEATQL [R109E] the “area with substrate ENLYFQA” value was 0.0917, the “area with substrate ENLYFQC” value was 0.0784 and the “area with substrate ENLYFQD” value was 0.085. The “area with substrate ENLYFQF” value was 0.0877, the “area with substrate ENLYFQG” value was 0.0572 and the “area with substrate ENLYFQH” value was 0.0889. The “area with substrate ENLYFQI” value was 0.0712, the “area with substrate ENLYFQK” value was 0.058 and the “area with substrate ENLYFQL” value was 0.0631. The “area with substrate ENLYFQM” value was 0.0989, the “area with substrate ENLYFQP” value was 0.0759 and the “area with substrate ENLYFQR” value was 0.056. The “area with substrate ENLYFQS” value was 0.0898, the “area with substrate ENLYFQW” value was 0.0481 and the “area with substrate ENLYFQY” value was 0.0699.

With MGESLFKGPRDYNPISSSICHLTNESDGHTTSLYGIGFGPFIITNKHLFRRNNGTLVVQSLHGVFKVKDTTTLQQHLVDGRDMIIIRMPKDFPPFPQKLKFREPQREERICLQTTNFQTKSMSSMVSDTSCTFPSGDGIFWKHWIQTKDGQCGSPLVSTRDGFIVGIHSASNFTNTNNYFTSVPKNFMELLTNQEAQQWVSGWRLNADSVLWGGHKVFMVKPEEPFQPVKEATQL [V113Q] the “area with substrate ENLYFQA” value was 0.0736, the “area with substrate ENLYFQC” value was 0.077 and the “area with substrate ENLYFQG” value was 0.0735. The “area with substrate ENLYFQI” value was 0.0646, the “area with substrate ENLYFQK” value was 0.0614 and the “area with substrate ENLYFQL” value was 0.0554. For the same variant, the “area with substrate ENLYFQM” value was 0.0746, the “area with substrate ENLYFQN” value was 0.0577 and the “area with substrate ENLYFQQ” value was 0.0599. The “area with substrate ENLYFQR” value was 0.0715, the “area with substrate ENLYFQS” value was 0.0804 and the “area with substrate ENLYFQT” value was 0.0571. The “area with substrate ENLYFQV” value was 0.0499 and the “area with substrate ENLYFQW” value was 0.0548.

For MGESLFKGPRDYNPISSSICHLTNESDGHTTSLYGIGFGPFIITNKHLFRRNNGTLVVQSLHGVFKVKDTTTLQQHLVDGRDMIIIRMPKDFPPFPQKLKFREPQTEERICLVTTNFQTKSMSSMVSDTSCTFPSGDGIFWKHWIQTKDGQCGSPLVSTRDGFIVGIHSASNFTNTNNYFTSVPKNFMELLTNQEAQQWVSGWRLNADSVLWGGHKVFMVKPEEPFQPVKEATQL [R106T], the “area with substrate ENLYFQA” value was 0.0788, the “area with substrate ENLYFQD” value was 0.0628 and the “area with substrate ENLYFQG” value was 0.106. For the same variant, the “area with substrate ENLYFQH” value was 0.0734, the “area with substrate ENLYFQI” value was 0.0516 and the “area with substrate ENLYFQL” value was 0.059. For the same variant, the “area with substrate ENLYFQM” value was 0.0875, the “area with substrate ENLYFQN” value was 0.0691 and the “area with substrate ENLYFQP” value was 0.0693. The “area with substrate ENLYFQQ” value was 0.0733, the “area with substrate ENLYFQR” value was 0.0651 and the “area with substrate ENLYFQS” value was 0.107. The “area with substrate ENLYFQT” value was 0.0763, the “area with substrate ENLYFQV” value was 0.0669 and the “area with substrate ENLYFQW” value was 0.0733.

For MGESLFKGPRDYNPISSSICHLTNESDGHTTSLYGIGFGPFIITNKHLFRRNNGTLVVQSLHGVFKVKDTTTLQQHLVDGRDMIIIRMPKDFPPFPQKLKFRVPQREERICLVTTNFQTKSMSSMVSDTSCTFPSGDGIFWKHWIQTKDGQCGSPLVSTRDGFIVGIHSASNFTNTNNYFTSVPKNFMELLTNQEAQQWVSGWRLNADSVLWGGHKVFMVKPEEPFQPVKEATQL [E103V], the “area with substrate ENLYFQA” value was 0.0992, the “area with substrate ENLYFQC” value was 0.0884 and the “area with substrate ENLYFQD” value was 0.0315. For the same variant, the “area with substrate ENLYFQF” value was 0.0682, the “area with substrate ENLYFQG” value was 0.0982 and the “area with substrate ENLYFQH” value was 0.0811. The “area with substrate ENLYFQI” value was 0.0834, the “area with substrate ENLYFQK” value was 0.0712 and the “area with substrate ENLYFQL” value was 0.064. For the same variant, the “area with substrate ENLYFQM” value was 0.0821, the “area with substrate ENLYFQN” value was 0.0687 and the “area with substrate ENLYFQR” value was 0.0631. The “area with substrate ENLYFQS” value was 0.0977, the “area with substrate ENLYFQT” value was 0.077 and the “area with substrate ENLYFQV” value was 0.0604. For the same variant, the “area with substrate ENLYFQW” value was 0.0417.

For MGESLFKGPRDYNPISSSICHLTNESDGHTTSLYGIGFGPFIITNKHLFRRNNGTLVVQSLHGVFKVKDTTTLQQHLVDGRDMIIIRMPKDFPPFPQKLKFRHPQREERICLVTTNFQTKSMSSMVSDTSCTFPSGDGIFWKHWIQTKDGQCGSPLVSTRDGFIVGIHSASNFTNTNNYFTSVPKNFMELLTNQEAQQWVSGWRLNADSVLWGGHKVFMVKPEEPFQPVKEATQL [E103H], the “area with substrate ENLYFQA” value was 0.1, the “area with substrate ENLYFQC” value was 0.0964 and the “area with substrate ENLYFQH” value was 0.0726. The “area with substrate ENLYFQK” value was 0.0561, the “area with substrate ENLYFQL” value was 0.0906 and the “area with substrate ENLYFQM” value was 0.0881. For the same variant, the “area with substrate ENLYFQN” value was 0.0746, the “area with substrate ENLYFQP” value was 0.0627 and the “area with substrate ENLYFQQ” value was 0.0735. The “area with substrate ENLYFQS” value was 0.0892, the “area with substrate ENLYFQT” value was 0.0677 and the “area with substrate ENLYFQV” value was 0.0405. For the same variant, the “area with substrate ENLYFQW” value was 0.0673 and the “area with substrate ENLYFQY” value was 0.0809.

With MGESLFKGPRDYNPISSSICHLTNESDGHTTSLYGIGFGPFIITNKHLFRRNNGTLVVQSLHGVFKVKDTTTLQQHLVDGRDMIIIRMPKDFPPFPQKLKFREPQREDRICLVTTNFQTKSMSSMVSDTSCTFPSGDGIFWKHWIQTKDGQCGSPLVSTRDGFIVGIHSASNFTNTNNYFTSVPKNFMELLTNQEAQQWVSGWRLNADSVLWGGHKVFMVKPEEPFQPVKEATQL [E108D] the “area with substrate ENLYFQA” value was 0.0936, the “area with substrate ENLYFQC” value was 0.0908 and the “area with substrate ENLYFQH” value was 0.0816. The “area with substrate ENLYFQI” value was 0.0599, the “area with substrate ENLYFQK” value was 0.0521 and the “area with substrate ENLYFQN” value was 0.0943. For the same variant, the “area with substrate ENLYFQP” value was 0.0543, the “area with substrate ENLYFQQ” value was 0.0802 and the “area with substrate ENLYFQR” value was 0.0719. The “area with substrate ENLYFQS” value was 0.105, the “area with substrate ENLYFQT” value was 0.0712 and the “area with substrate ENLYFQW” value was 0.0552.
